About 14,000 (4.5%) of roughly 310,000 compounds showed an effect of 50% or more. Effects have a minus sign here. Some of the results follow.
biological target: human ether-à-go-go-related gene (hERG) potassium channel (human, UniProt Q12809); experiment: primary screen, population patch clamp on CHO cells stably expressing hERG
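Further: peak tail current of the secondary pulse compared with the same well before compound.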

Sequence of human ether-à-go-go-related gene (hERG) potassium channel (Q12809 whole entry, looked up): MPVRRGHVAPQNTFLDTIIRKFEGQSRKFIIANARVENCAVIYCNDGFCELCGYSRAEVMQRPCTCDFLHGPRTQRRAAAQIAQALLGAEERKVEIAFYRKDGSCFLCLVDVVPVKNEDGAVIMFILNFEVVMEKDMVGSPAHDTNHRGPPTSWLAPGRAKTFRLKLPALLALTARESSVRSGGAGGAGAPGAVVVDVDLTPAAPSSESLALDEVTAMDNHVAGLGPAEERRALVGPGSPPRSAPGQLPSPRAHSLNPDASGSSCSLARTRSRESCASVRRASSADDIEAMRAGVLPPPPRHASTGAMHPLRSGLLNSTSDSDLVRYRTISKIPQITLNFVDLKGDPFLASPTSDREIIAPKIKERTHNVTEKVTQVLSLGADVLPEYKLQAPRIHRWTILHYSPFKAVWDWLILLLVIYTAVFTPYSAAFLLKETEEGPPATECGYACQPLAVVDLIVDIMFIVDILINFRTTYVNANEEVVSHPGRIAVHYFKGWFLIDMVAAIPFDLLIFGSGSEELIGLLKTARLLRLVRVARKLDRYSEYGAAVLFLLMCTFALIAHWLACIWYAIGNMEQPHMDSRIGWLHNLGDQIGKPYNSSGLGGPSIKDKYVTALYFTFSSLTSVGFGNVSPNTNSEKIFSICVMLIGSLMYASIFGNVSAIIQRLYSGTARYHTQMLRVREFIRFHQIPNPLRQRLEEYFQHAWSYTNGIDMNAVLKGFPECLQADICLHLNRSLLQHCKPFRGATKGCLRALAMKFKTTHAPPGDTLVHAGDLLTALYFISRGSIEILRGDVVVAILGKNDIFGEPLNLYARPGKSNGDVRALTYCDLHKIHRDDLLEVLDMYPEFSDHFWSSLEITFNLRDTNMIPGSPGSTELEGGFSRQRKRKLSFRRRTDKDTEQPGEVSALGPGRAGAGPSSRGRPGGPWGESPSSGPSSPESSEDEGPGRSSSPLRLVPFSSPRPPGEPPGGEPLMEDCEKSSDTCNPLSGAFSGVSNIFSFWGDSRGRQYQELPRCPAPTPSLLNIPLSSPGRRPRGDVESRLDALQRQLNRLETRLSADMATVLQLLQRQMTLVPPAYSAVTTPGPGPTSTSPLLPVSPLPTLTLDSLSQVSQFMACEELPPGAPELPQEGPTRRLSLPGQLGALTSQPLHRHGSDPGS

| Structure (SMILES) | hERG current change (%, negative = inhibition) at 10uM |
| --- | --- |
| O=C(COc1ccc(F)cc1)Nc1nccs1 | -5.65% |
| COc1cc(C(CC(=O)N2CCCC2)c2c(OC)cc(OC)c3c(-c4ccccc4)cc(=O)oc23)cc(OC)c1OC (stereo not shown) | -10.5% |
| O=C(N/C(=C\c1ccccc1)C(=O)N1CCOCC1)c1cccc(Br)c1 | 18.8% |
| O=C(Nc1cnn(Cc2ccc(Cl)c(Cl)c2)c1)C12CC3CC(CC(C3)C1)C2 | 8.16% |
| CCOC(=O)c1c(CN2CCN(CCO)CC2)n(-c2ccccc2)c2cc(Br)c(O)cc12 | -68.2% |
| COc1cc(NS(C)(=O)=O)cc(OC)c1OC | 17.8% |
| O=C(Cn1cc(C(F)(F)F)cc(Cl)c1=O)NC1CCS(=O)(=O)C1 (stereo not shown) | 3.32% |
| CCOC(=O)NC(=O)/C(C#N)=C/c1ccc(N(C)C)cc1 | 12.8% |
| CC(C)C1N=C2c3ccccc3N=C(SCc3cc(=O)n4cc(Cl)ccc4n3)N2C1=O (stereo not shown) | -67% |
| N#C/C(C(N)=O)=C1/CCCN1Cc1ccccc1 | 3.07% |
| CCOc1cc(Cl)c(S(=O)(=O)NCc2ccccn2)cc1Cl | -5.91% |
| COc1ccc(CC(=O)NCCS(=O)(=O)N2CCN(c3ccccc3)CC2)cc1 | 12.7% |
| COc1ccc(/C(C)=N\NS(=O)(=O)c2ccccc2)cc1OC | -23.5% |
| CC1CCN(C(=S)NC(=O)c2cccc([N+](=O)[O-])c2)CC1 | 12.2% |
| N#CC1=C(N)OC2=C(C(=O)CCC2)C1c1cccs1 (stereo not shown) | 9.02% |
| COc1cc2c(cc1OC)-c1cc(OCCN3CCOCC3)nc(=O)n1CC2 | -11.5% |
| CCC(C(=O)NCCc1ccccc1OC)n1nc(C)c2c(C)n(-c3ccccc3)nc2c1=O (stereo not shown) | -30% |
| Cc1ccc2cc(C(c3nnnn3C3CCCC3)N3CCN(c4ccc(F)cc4)CC3)c(=O)[nH]c2c1 (stereo not shown) | -42.9% |
| CNC(=S)N1CCC(c2nc3ccccc3s2)CC1 | -2.24% |
| Cc1nn2c(-c3ccccn3)ccnc2c1Br | 6.62% |
| CCCC(=O)Nc1ccc(NC(=O)C23CC4CC(CC(C4)C2)C3)cn1 | 4.68% |
| O=C(COC(=O)c1cccc(S(=O)(=O)NCc2ccccc2)c1)c1ccccc1 | -13.1% |

| Structure (SMILES) | hERG current change (%, negative = inhibition) at 10uM |
| --- | --- |
| O=C(Oc1ccccc1)c1ccc(COC(=O)c2cnccn2)cc1 | 9.6% |
| CSC(=NCCCN1CCOCC1)NS(=O)(=O)c1cccs1 | 7.08% |
| CC(NC(=O)c1ccco1)c1ccc(-n2ccnc2)cc1 (stereo not shown) | -37% |
| CC(C)(C)c1nc(NC(=O)Nc2ccccc2)sc1Br | 13.4% |
| Cc1nnc(SCC(=O)c2c(N)n(C)c(=O)n(C)c2=O)[nH]c1=O | 4.29% |
| CC(C)(C)NC(=O)COC(=O)c1ccc(Cl)c(S(N)(=O)=O)c1 | 12.6% |
| COc1ccccc1N(C(=O)c1cncc(Br)c1)c1nc(-c2ccc(C)cc2)cs1 | 1.07% |
| Cc1cc(S(=O)(=O)N2CCN(Cc3ccc4c(c3)OCO4)CC2)cc(C)c1N1CCCC1=O | -6.5% |
| COc1cc(NC(=O)C2CCCN(S(=O)(=O)c3cccc4nsnc34)C2)cc(OC)c1 (stereo not shown) | -1.24% |
| CC(C)CN(C(=O)COC(=O)c1cnccn1)c1c(N)n(Cc2ccccc2)c(=O)[nH]c1=O | 16.4% |
| CC1CCN(Cc2nnc(-c3cccc(Br)c3)o2)CC1 | -0.585% |
| Cc1cc(/C=N/n2cnnc2)c(C)n1-c1ccc2c(c1)OCO2 | -19.3% |
| COc1ccc(OC)c(CN2CCN(C(=O)c3ccc(NS(=O)(=O)c4cccc([N+](=O)[O-])c4)cc3)CC2)c1 | -70.6% |
| Cc1ccccc1-c1n[nH]c(=S)n1C | 5.07% |
| O=C(NNC(=O)c1ccccc1[N+](=O)[O-])c1ccc(NS(=O)(=O)c2cccs2)cc1 | 16.2% |
| Cc1ccc2nc3c(cc(C(=O)NC4CCS(=O)(=O)C4)n3Cc3ccccc3)c(=O)n2c1 (stereo not shown) | 19.6% |
| COc1cc(CNCc2ccccn2)ccc1OCc1ccc(Cl)c(Cl)c1.Cl | -51.2% |
| CCN(CC)P(=O)(Nc1ccc(C)cc1Br)c1ccc(N(C)C)cc1NC(=O)c1ccco1 (stereo not shown) | 18.3% |
| Cc1ccc(-c2nc(CS(=O)(=O)CC(=O)NC3CCCCC3C)c(C)o2)cc1 (stereo not shown) | 13.1% |
| CCCn1c(NCc2cccs2)nc2ccccc21 | -29.3% |
| O=C(O)c1ccc(N/N=C/c2cn(Cc3ccc(F)cc3)c3ccccc23)cc1 | 12.2% |
| O=c1[nH][nH]c(C(F)(F)F)c1C=Nc1ccccc1Cl | 9.08% |

| Structure (SMILES) | hERG current change (%, negative = inhibition) at 10uM |
| --- | --- |
| COC(=O)c1ccc(C)c(NC(=O)CSc2nnc3ccccn23)c1 | -26.1% |
| COc1cc(/C=C(\C#N)C(=O)c2c[nH]c3ccccc23)cc(OC)c1O | 4.41% |
| CCCC(=O)Nc1nnc(-c2ccc(Cl)s2)o1 | -4.06% |
| COc1ccc(C(C(=O)NC2CCCC2)N(C(=O)c2csnn2)C2CCCC2)cc1 (stereo not shown) | -6.68% |
| O=C(NNC(=O)c1ccc([N+](=O)[O-])cc1)c1ccc(F)cc1 | 6.25% |
| COc1ccc(CCN(Cc2cc3cccc(C)c3n3nnnc23)C(=O)c2ccncc2)cc1OC | -31.7% |
| COc1ccc2nc(N=NC3=C(O)CC(C)(C)CC3=O)sc2c1 | 13.2% |
| NNC(=O)c1ccc(Cl)cc1 | 2.74% |
| COc1ccccc1OCCC(=O)OCC(=O)Nc1ccc(Br)cc1F | -6.24% |
| C[C@]12CC[C@@H]3c4ccc(O)cc4CC[C@H]3[C@@H]1C[C@@H](O)[C@@H]2O | 1.46% |
| O=c1[nH]c(-c2cccs2)nc2ccccc12 | 6.51% |
| c1ccc2sc(SN3CCOCC3)nc2c1 | 16.7% |
| Cc1ccc(C)c(NC(=O)c2nc(-c3ccccc3)n(-c3ccccc3)n2)c1 | -15.7% |
| COc1cc(C2C(C#N)=C(N)Oc3c2oc(CO)cc3=O)ccc1OC(C)C (stereo not shown) | 1.04% |
| Cc1c(NC(=O)CN2CCN(c3cccc(Cl)c3)CC2)c(=O)n(-c2ccccc2)n1C | 4.56% |
| CC1Cc2ccccc2N1C(=O)COC(=O)/C=C/c1ccc(F)cc1 (stereo not shown) | -11.8% |
| CCc1ccc(S(=O)(=O)NCc2cn3c(C)csc3n2)s1 | -23.6% |
| O=C(Nc1nc2ccc(S(=O)(=O)N3CCCC3)cc2s1)c1cccs1 | 12.7% |
| CCOc1ccc(N=Cc2c(O)n(-c3cc(C)cc(C)c3)c(=O)[nH]c2=O)cc1 | -6.48% |
| O=C(Cc1ccc([N+](=O)[O-])cc1)c1ccc(O)cc1O | -40.4% |
| COc1ccc(NC(=O)CCc2ccc(OC)c(OC)c2)cn1 | 12.4% |
| COc1ccc(CCNCCC(=O)Nc2c(C)cc(C)cc2C)cc1OC.Cl | -13.8% |

| Structure (SMILES) | hERG current change (%, negative = inhibition) at 10uM |
| --- | --- |
| COc1ccc(C(CCN2CCCCC2)c2c(O)cc(OC)cc2OC)cc1 (stereo not shown) | -75.2% |
| Cc1cc2c(c(=O)n1Cc1ccccn1)C(c1ccc3c(c1)OCO3)C(C#N)=C(N)O2 (stereo not shown) | -0.622% |
| COc1ccc(NC(=O)C2C3C=CC(C3)C2C(=O)NCc2ccco2)cc1 (stereo not shown) | -15.7% |
| CC1=C(C(N)=O)S(=O)(=O)c2ccccc21 | 15.5% |
| COc1ccc(S(=O)(=O)c2ccc(OC)c(OC)c2)cc1OC | -12.2% |
| CC1CN(c2nnc(-c3ccccc3)c3ccccc23)CC(C)O1 (stereo not shown) | -10.8% |
| CCOc1ccc(NS(=O)(=O)c2ccc(N)cc2)cc1 | 10.1% |
| CCCSc1nc2c(c(=O)[nH]c(=O)n2C)n1CC(O)COc1ccccc1 (stereo not shown) | -20.5% |
| COc1ccc(-n2cnnc2SCC(=O)N(C)c2ccccc2)cc1 | -15.3% |
| Cc1onc(-c2c(F)cccc2Cl)c1C(=O)OCC(=O)c1c[nH]c2ccccc12 | 8.02% |
| COCC(=O)N1CCc2ccc(NC(=O)c3ccc(C(F)(F)F)cc3)cc2C1 | -38.3% |
| O=c1[nH]c2ccc(S(=O)(=O)N3CCCCC3)cc2[nH]1 | 14.2% |
| COc1cc(-n2c(C)nc3cc(C(=O)N4CCOCC4)ccc32)cc(OC)c1OC | 0.933% |
| CCOc1ccc(N2C(=O)CC(SC(=NC)Nc3cccc(F)c3)C2=O)cc1 (stereo not shown) | -2.81% |
| COc1ccc(S(=O)(=O)NCc2cccnc2)c2ccccc12 | 5.55% |
| CCNC(=O)c1ccccc1NC(=O)C1CC(=O)N(C(C)C)C1 (stereo not shown) | 9.78% |
| NCCSc1c(-c2ccc(Cl)cc2)[nH]c2ccccc12 | -84.3% |
| COC(=O)c1c(NC(=O)CC2SC(N)=NC2=O)sc2c1CCC(C)C2 (stereo not shown) | 4.92% |
| Cc1csc(NC(=O)Nc2cccc(Cl)c2)n1 | 0.132% |
| O=C(Nc1nnc(-c2ccco2)o1)C1CCCCC1 | 3.61% |
| Cc1ccc(N(CC(=O)NCc2cccs2)S(=O)(=O)c2cccs2)cc1 | 1.23% |
| Nc1nnc(COc2ccccc2)s1 | -2.39% |

— publication PMC4336329 (PLoS ONE, 2015)
